# Data taken from paper PMC4336329 (PLoS ONE, 2015).
# The campaign covered roughly 310,000 compounds. About 14,000 (4.5%) showed an effect of 50% or more. The effect is printed as a negative number. Some of the results follow.
# Molecular target: human ether-à-go-go-related gene (hERG) potassium channel (human, UniProt Q12809)
# Test: primary screen, population patch clamp on CHO cells stably expressing hERG
# 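Note: peak tail current of the secondary pulse compared with the same well before compound.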
# human ether-à-go-go-related gene (hERG) potassium channel, sequence (Q12809 whole entry, looked up): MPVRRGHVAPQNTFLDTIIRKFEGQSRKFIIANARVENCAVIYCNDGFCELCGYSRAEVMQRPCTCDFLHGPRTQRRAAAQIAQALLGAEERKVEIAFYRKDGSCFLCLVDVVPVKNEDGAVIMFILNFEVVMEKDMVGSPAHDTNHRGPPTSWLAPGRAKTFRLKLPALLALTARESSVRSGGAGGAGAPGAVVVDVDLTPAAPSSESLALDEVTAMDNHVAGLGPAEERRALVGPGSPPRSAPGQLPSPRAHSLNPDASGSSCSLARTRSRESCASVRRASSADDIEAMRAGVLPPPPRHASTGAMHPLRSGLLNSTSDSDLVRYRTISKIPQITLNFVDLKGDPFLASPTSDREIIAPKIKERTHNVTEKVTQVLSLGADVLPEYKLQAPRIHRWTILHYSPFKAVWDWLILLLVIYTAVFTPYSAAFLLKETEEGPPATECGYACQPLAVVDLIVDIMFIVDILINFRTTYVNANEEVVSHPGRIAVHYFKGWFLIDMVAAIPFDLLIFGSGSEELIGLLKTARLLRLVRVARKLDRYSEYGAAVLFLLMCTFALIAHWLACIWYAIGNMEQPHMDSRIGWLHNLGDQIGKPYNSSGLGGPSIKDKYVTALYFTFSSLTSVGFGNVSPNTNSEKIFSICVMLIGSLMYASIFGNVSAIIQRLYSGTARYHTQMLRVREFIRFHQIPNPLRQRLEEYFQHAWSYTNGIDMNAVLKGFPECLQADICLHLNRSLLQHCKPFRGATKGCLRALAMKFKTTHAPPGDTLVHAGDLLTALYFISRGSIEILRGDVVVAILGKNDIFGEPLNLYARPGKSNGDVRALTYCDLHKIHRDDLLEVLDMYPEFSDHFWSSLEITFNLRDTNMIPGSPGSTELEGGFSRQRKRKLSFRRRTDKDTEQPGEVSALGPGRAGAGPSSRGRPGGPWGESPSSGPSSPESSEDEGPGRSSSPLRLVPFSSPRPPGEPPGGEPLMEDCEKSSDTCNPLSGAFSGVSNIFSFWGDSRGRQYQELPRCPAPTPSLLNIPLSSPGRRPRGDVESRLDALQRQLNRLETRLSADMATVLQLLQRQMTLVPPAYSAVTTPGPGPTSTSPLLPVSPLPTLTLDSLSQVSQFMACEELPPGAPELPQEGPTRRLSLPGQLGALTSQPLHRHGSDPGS
row,SMILES,"hERG current change (%, negative = inhibition) at 10uM"
1,COc1ccccc1N1CCN(CC(=O)c2c[nH]c3ccccc23)CC1,-44.7%
2,COc1ccc(CCN(C)C2CCCN(C(=O)CCC(F)(F)F)C2)cc1OC (stereo not shown),-52%
3,CN(C)c1ccc(NC(=O)C2C3C=CC(C3)C2C(=O)O)cc1 (stereo not shown),7.65%
4,O=C(CCN1c2ccccc2Sc2ccccc21)Nc1ccccc1,-3.4%
5,CC(=O)Nc1ccc(NC(C)=O)s1,0.0366%
6,Cc1occc1C(=O)NNC(=S)NC(=O)COc1ccc(Cl)cc1Cl,28.8%
7,O=C(COc1ccccc1[N+](=O)[O-])OCCCOC(=O)COc1ccccc1[N+](=O)[O-],12.4%
8,COc1ccc(NC(=O)c2[nH]c(C)c(C(C)=O)c2C)cc1S(=O)(=O)N1CCOCC1,1.8%
9,Cc1ccc(N2CC(C(=O)Nc3cccnc3)CC2=O)cc1 (stereo not shown),-9.42%
10,Cc1ccc(N(C(=O)c2csnn2)C(C(=O)NCc2ccccc2)c2cccnc2)cc1 (stereo not shown),5.25%
11,COc1ccccc1Nc1nc2ccccc2n1C,-3.73%
12,O=C(NCc1ccccc1)/C(=C\c1ccc(O)cc1)NC(=O)c1ccco1,-20.7%
13,CNC(=S)N(Cc1ccccc1)Cc1cccnc1,8.19%
14,CS(=O)(=O)N(CC(=O)N1CCOCC1)c1cccc([N+](=O)[O-])c1,6.28%
15,FC(F)(F)c1cc(C(F)(F)F)c2ccc(N3CCN(c4ccc(Cl)cc4)CC3)nc2n1,-8.81%
16,CNc1ccccc1C(=O)OCC(C)=O,9.88%
17,O=c1c2ccccc2cnn1Cc1n[nH]c(=S)n1-c1ccc(F)cc1,12.2%
18,COC(=O)C1=C(c2ccc(F)cc2OCc2ccccc2)C[C@@H]2CC[C@H]1N2C(=O)NCc1ccc(C)cc1,12.1%
19,CCCCn1c(SCc2nc(N)nc(N3CCCCC3)n2)nc2c1c(=O)n(C)c(=O)n2C,-3.14%
20,Cl.Nc1ccc(N(CCO)CCO)cc1,36.3%
21,COc1cc(C2Nc3ccccc3C(=O)N2NS(C)(=O)=O)ccc1O (stereo not shown),2.44%
22,Cc1[nH+]csc1CCOC(=O)c1ccccc1.[Cl-],17.5%

row,SMILES,"hERG current change (%, negative = inhibition) at 10uM"
1,C/C(=N\O)c1cccc(Br)c1,9.23%
2,Cc1ccnc(NS(=O)(=O)c2ccc(NC(=O)C3CCCCC3)cc2)n1,11.4%
3,Cc1oc2ccc(O)cc2c1C(=O)c1ccc(Cl)cc1,9.07%
4,CCOc1ccc(NC(=O)N2CCc3ccccc3C2)cc1,2.65%
5,O=C1CCCN1CN(C(=O)c1ccccc1)c1ccc(F)cc1,4.13%
6,CC1=CC(=NOC(=O)c2cccc([N+](=O)[O-])c2)C=C(C)C1=O,12%
7,CCN(C(=O)C1CCCN1S(=O)(=O)c1cccc2nsnc12)c1ccccc1 (stereo not shown),-38.3%
8,Cc1cccc(S(=O)(=O)Nc2ccc(-c3ccc4nncn4n3)cc2)c1,-123%
9,CCNc1nc(NCC)nc(OCC(=O)O)n1,7.6%
10,Cc1cc(C)c(C(N)=O)c(Cl)n1,19.9%
11,COc1ccc(NC(=O)NNC(=O)CCc2ccc(O)c(O)c2)cc1OC,7.53%
12,CC(C)(C)NC(=O)CSC(=Nc1ccc(F)cc1)NC#N,-72.3%
13,COc1ccc(/C(N)=N/OC(=O)CSc2ccc(C)cc2)cc1OC,1.89%
14,CC(C)(C)OC(=O)CNC(=O)c1[nH]cnc1C(=O)NC1CCN(C(=O)OC(C)(C)C)CC1,-2.67%
15,COc1ccc(-c2c(C)nc(N)nc2-c2ccc(OC)cc2O)cc1,11%
16,Fc1ccc(C2N(c3ccccc3)C(=S)N3CCCN23)cc1 (stereo not shown),4.2%
17,CCC(=O)c1ccc(OCC(=O)Nc2ccccc2N2CCOCC2)cc1,-7.08%
18,CCc1nnc(NCn2nc(C)cc2C)s1,4.04%
19,CCc1ccccc1NC(=O)CCc1nc(-c2ccc(C)cc2)no1,4.43%
20,CCn1c2ccccc2c2nnc(SCC(=O)N3CC(C)OC(C)C3)nc21 (stereo not shown),-9.08%
21,CSCC[C@H](NC(=O)OC(C)(C)C)C(=O)N/N=C/c1cc2ccc(C)cc2nc1Cl,-7.13%
22,O=C(Nn1cnnc1)c1cccc(S(=O)(=O)N2CCOCC2)c1,22.5%

row,SMILES,"hERG current change (%, negative = inhibition) at 10uM"
1,COc1ccc(NC(=O)C/C(C)=N/NC(=O)c2ccco2)c([N+](=O)[O-])c1,-33.9%
2,COc1cc2c(cc1NC(=O)COC(=O)[C@@H](NS(=O)(=O)c1cccc(Cl)c1)C(C)C)oc1ccccc12,18.8%
3,CCOc1ccc(CN2CCNC(=O)C2CC(=O)NCCN2CCOC2=O)cc1 (stereo not shown),21.1%
4,O=C(COc1ccccc1[N+](=O)[O-])NCc1cccnc1,-18%
5,O=C(N/N=C/c1ccco1)C12CC3CC(CC(C3)C1)C2,10.3%
6,Cc1cc(C(=O)OCC(=O)NC2CCCCC2)c(C)o1,9.12%
7,CCOc1ccccc1C1C(C#N)=C(N)Oc2cc(C)n(C)c(=O)c21 (stereo not shown),-2.81%
8,COc1ccc(-n2c(C(C)(C)C)csc2=Nc2c(C)n(C)n(-c3ccccc3)c2=O)cc1,3.4%
9,Cc1ccc(CNC(=O)C2CC(c3cccc(F)c3)=NO2)cc1 (stereo not shown),-0.806%
10,O=C(Nc1ccccc1)c1nnsc1S(=O)(=O)c1ccc(Cl)cc1,-1.13%
11,COc1ccc(C2CC(c3cccc(C)c3)n3nc(N)nc3N2)cc1 (stereo not shown),-26.1%
12,CC(C)N1CC23C=CC(O2)C(C(=O)OCc2ccccc2)C3C1=O (stereo not shown),3.29%
13,O=[N+]([O-])c1sccc1CS(=O)(=O)c1ccccc1,0.965%
14,C[C@@H](C(=O)Nc1ccc2ccccc2c1)[C@H]1C[C@]1(C)[C@H](NC(=O)c1cnccn1)c1ccccc1,-4.43%
15,COc1ccc(S(=O)(=O)N(C)CC(=O)Nc2ccc3c(c2)OCO3)cc1,-6.06%
16,O=C1[C@H]2[C@H](C=CC[C@H]2C(=O)N2CCOCC2)CCN1Cc1ccccc1,3.9%
17,C=CCNC(=S)NNC(=O)c1cccc2ccccc12,8.08%
18,CCCCN(C)CCCNC(=O)c1cc(Nc2ccc(OC)c(OC)c2)nc2ccccc12,2.09%
19,CN(C)S(=O)(=O)c1ccc(C(=O)OCC(=O)Nc2cccnc2Cl)cc1,1.64%
20,CN(C)S(=O)(=O)c1cccc(NC(=O)COC(=O)c2cc(-c3cccc(Br)c3)nc3ccccc23)c1,0.00528%
21,CN(C)c1ccc(C(CC(=O)O)C(=O)O)cc1 (stereo not shown),14.4%
22,Cc1c(OCC(=O)NCCCN2CCOCC2)ccc2c(-c3ccccc3)cc(=O)oc12,-26.9%

row,SMILES,"hERG current change (%, negative = inhibition) at 10uM"
1,O=C(O)CCc1[nH]c2ccccc2c1Sc1ccccc1,16.5%
2,CCCCNC(=O)C1Cc2cc(S(=O)(=O)N3CCCC3)ccc2N1C(C)=O (stereo not shown),11.9%
3,CCCc1cc(=O)c2ccc(OC/C(C)=N/O)cc2o1,-17.5%
4,Cc1nn(C2CCS(=O)(=O)C2)c(Cl)c1/C=C/C(=O)OCC(=O)c1c[nH]c2ccccc12 (stereo not shown),-4.84%
5,CCOc1ccccc1N=NC1C(=O)N(C(N)=S)N=C1C (stereo not shown),7.06%
6,Cc1cccc(N=Nc2c(C)nn(-c3ccccc3)c2N)c1C,-7.14%
7,Cc1cccc(-c2noc(CN(C)C(=O)c3ccc4c(c3)OCO4)n2)c1,-24.1%
8,CC(C)CCN1CCN(Cc2cccn2-c2nccs2)CC1CCO (stereo not shown),-52.1%
9,Cc1cccc(NC(=O)COc2ccc(/C=N\n3cnnc3)cc2)c1,-37.2%
10,Cc1cccc(NC(=O)CN(C)S(=O)(=O)c2cccc3nsnc23)c1C,-8.69%
11,CS(=O)(=O)N1CCCC(c2nc(-c3ccc(S(=O)(=O)NCc4ccccc4)cc3)no2)C1 (stereo not shown),-1.19%
12,COc1ccc(NC(=O)[C@@H]2CC=C[C@@H]3CCN(Cc4ccccc4)C(=O)[C@@H]32)cc1,-8.12%
13,CCOC(=O)c1sc(NC(=S)NC(=O)c2ccccc2Cl)c(C(=O)OCC)c1C,5.04%
14,COc1cc(CNC(C)(C)CO)ccc1OCC(=O)NC(C)(C)C,0.607%
15,COc1cc(CN2CCN(c3cccc(C)c3C)CC2)cc([N+](=O)[O-])c1O,23.5%
16,Clc1cccc(-c2nc(-c3ccc(-c4nn[nH]n4)cc3)no2)c1,10.5%
17,CCn1c(SCC(=O)N2c3ccccc3CC2C)nnc1-c1ccco1 (stereo not shown),-17.6%
18,COc1cc(/C=N/NC(=O)c2cc(C3CC3)[nH]n2)ccc1O,-12.7%
19,CCOc1ccccc1C1CC(=O)Nc2cc(OC)c(OC)cc21 (stereo not shown),13.2%
20,CC12CC(NC(=O)N1c1cccc(C(=O)Nc3ncn[nH]3)c1)c1ccccc1O2 (stereo not shown),-21.1%
21,Cc1ccc(C(=O)N2C(CC(=O)Nc3ccc(Cl)cc3)C(=O)NC3CCCCC32)cc1 (stereo not shown),-12.3%
22,CCC(=O)N1CCc2cc(Br)cc(S(=O)(=O)NCCCN(CC)Cc3ccccc3)c21,-27.9%
